In PubChem BioAssay (NCI):
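Dose response: 5 concentrations. Exposure: 48 h. Format: 96-well plates. Endpoint: linear interpolation; highest concentration if not reached. TGI: total growth inhibition.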 For part of its entries the source gives two or more results. The list is limited to them. The source may hold further records. Records of one sample usually come from different ranges of test concentrations, not given here; a value can be the end of its range.

System: OVCAR-5 ovarian
Experiment: growth of human tumour cells (NCI), 48 h

## CCOC(=O)/C=C(/C(=O)OCC)n1cc(Cl)c(=O)n(CC(=O)OCC)c1=O
  TGI: 8.72 µM and > 100 µM
